Assay results reported in publication PMC10510377 (Journal of Medicinal Chemistry, 2023).

How the values were obtained:
[1] = Stability of the tracer in HPLC eluent and in the formulation; assay type: physicochemical
Excerpt: N-Desmethyl brigatinib was radiolabeled using [^11C]methyl iodide without the addition of a base. By adding a protic solvent, the formation of an unknown byproduct could be suppressed while product formation was promoted. The side product-to-product ratio in dimethyl sulfoxide could almost completely be suppressed with the addition of ethanol, as is exemplified in the Supporting Information (Figure S1). […] The product was purified by semi-preparative HPLC, followed by reformulation in saline with 10% ethanol.

[2] = In vivo metabolism of the tracer in blood plasma (SPE and radio-HPLC); details: 60 min p.i., female nu/nu mice, i.v. tracer
Method: At 60 min p.i., 87 ± 8% of the circulating radioactivity in blood plasma was intact tracer, while 9 ± 1% was polar metabolites and 4 ± 7% was apolar metabolites (Figure 1).
Part of the blood (0.6–1 mL) collected via heart puncture in the biodistribution evaluation was used for the metabolic stability study. Centrifugation (4000 rpm for 5 min) separated the plasma from the blood cells. The sample was diluted with 0.15 M hydrochloric acid (2 mL) before loading onto an activated tC2 solid-phase extraction (SPE) cartridge. The filtrate and any remaining polar metabolites washed off the cartridge with water were collected and defined as the “polar” fraction. The apolar fraction was collected by eluting the cartridge with a mixture of methanol and water. An SPE extraction efficiency of 94 ± 2% was achieved. The collected fractions were counted for radioactivity in a Wizard gammacounter 2480 (Wallac/PerkinElmer, Waltham, MA, USA). The percentage of intact tracer was determined by semi-preparative radio-HPLC on a Dionex Ultimate 3000 system using a Phenomenex Gemini (250 × 10 mm, 5 μm) HPLC column and a gradient of 0 to 40% acetonitrile in water, both containing trifluoroacetic acid (0.1%), in 12 min at 3 mL·min^–1. Fractions of 30 s were collected and counted for radioactivity in a Wizard gammacounter 1470 (Wallac/PerkinElmer, Waltham, MA, USA).

[3] = tested on: HCC827 xenografts (EGFR Del19 mutated); assay: Ex vivo biodistribution, tumor uptake in HCC827 xenografts; details: HCC827 xenograft, 60 min p.i.
[4] = A549 tumor-bearing mice, 5, 30, 60 min p.i.
[5] = tested on: A549 xenografts (wild-type EGFR/ALK); details: A549 xenograft, ex vivo biodistribution, 60 min p.i.
[6] = tested on: H2228 xenografts (endogenous EML4–ALK); details: H2228 xenograft, ex vivo biodistribution, 60 min p.i.
EML4–ALK fusion-A549 = tested on: EML4–ALK fusion-A549; parameters: method as in ref 19 = [19]; Enuameh M. S.; Volpe L.-A.; Jackson M.; Foulke J.; Chen L.; Shapiro B. A.; Tian F. Developing isogenic cell models with CRISPR: an EML4-ALK fusion NSCLC cell line . https://www.nature.com/articl; details: read-out: IC50, cell survival; cited from earlier work
[7] = parameters: method as in ref 16, 18 = [16]; Food and Drug Administration (FDA) . Highlights of Prescribing Information—Alunbrig . 2017 , https://www.accessdata.fda.gov/drugsatfda_docs/label/2017/208772lbl.pdf (accessed April 21, 2021). || [18]; European Medicines Agency . Procedure No. EMEA/H/C/004248/0000—Assessment Report—Alunbrig . https://www.ema.europa.eu/en/documents/assessment-report/alunbrig-epar-public-assessment-report_en.pdf (acce); details: orally administrated [^14C]brigatinib; cited from earlier work
[8] = parameters: method as in ref 16, 18 = [16]; Food and Drug Administration (FDA) . Highlights of Prescribing Information—Alunbrig . 2017 , https://www.accessdata.fda.gov/drugsatfda_docs/label/2017/208772lbl.pdf (accessed April 21, 2021). || [18]; European Medicines Agency . Procedure No. EMEA/H/C/004248/0000—Assessment Report—Alunbrig . https://www.ema.europa.eu/en/documents/assessment-report/alunbrig-epar-public-assessment-report_en.pdf (acce); details: cited from earlier work
[9] = tested on: HCC827 (del19 mutated EGFR); parameters: method as in ref 21 = [21]; Center for Drug Evaluation and Research . Multi-Discipline Review; Application Number: 208772Orig1s000, 2016 .; details: cited from earlier work
[10] = tested on: ALK phosphorylation in H2228 cells; details: read-out: cellular ALK phosphorylation IC50; cited from earlier work
H2228 = tested on: H2228; parameters: method as in PMID 27780853; details: cited from earlier work
CYP2C8 and CYP3A4 = details: reported; cited from earlier work

For `COc1cc(N2CCC(N3CCN([11CH3])CC3)CC2)ccc1Nc1ncc(Cl)c(Nc2ccccc2P(C)(C)=O)n1`, the “stability of pure HPLC product fraction in eluent” value ([1]; acidic solutions (eluent with trifluoroacetic acid), over time) was “degradation of the product in acidic solutions over time”, the “stability of formulated product” value ([1]; saline with 10% ethanol) was “remained stable” and the “intact tracer, share of circulating radioactivity in blood plasma” value [2] was 87 ± 8% and 87%. The tumor uptake [3] was 1.66 ± 0.17 % ID/g, the “radioactive concentration in the brain” value [4] was “very low” and the tumor uptake [5] was 1.40 ± 0.22 % ID/g. The tumor uptake [6] was 2.65 ± 0.79 %ID/g.
For `Cc1cc(Nc2ncc(Cl)c(Nc3ccccc3S(=O)(=O)C(C)C)n2)c(OC(C)C)cc1C1CCNCC1` [ceritinib], the IC50 (EML4–ALK fusion-A549) is listed as 6000 nM.
In the case of `COc1cc(N2CCC(N3CCNCC3)CC2)ccc1Nc1ncc(Cl)c(Nc2ccccc2P(C)(C)=O)n1` [N-Desmethyl brigatinib, N-Desmethyl Brigatinib], the “share of the circulating activity” value [7] is listed as 3.5% and the “potency relative to brigatinib (fold less potent)” value [8] is listed as “approximately 3 fold”.
In the case of `COc1cc(N2CCC(N3CCN(C)CC3)CC2)ccc1Nc1ncc(Cl)c(Nc2ccccc2P(C)(C)=O)n1` [brigatinib, Brigatinib], the GI50 [9] is listed as 163 nM, the IC50 [10] is listed as 4.5 ± 2.2 nM and the GI50 (H2228) is listed as 10.1 nM. The metabolizing enzymes (CYP2C8 and CYP3A4) was “primarily metabolized by CYP2C8 and CYP3A4” and the “share of the circulating activity” value [7] was 92%.

Several values for one entry are separate records, joined by “and”; a condition that tells them apart may be missing. Equal values may be shown once.
